# The other results are listed elsewhere or left out. At the low end of the ranking, values are background and their order means little.
# Molecular target: T1, GST-Rok (full length) (UniProt O34857)
# T1 sequence: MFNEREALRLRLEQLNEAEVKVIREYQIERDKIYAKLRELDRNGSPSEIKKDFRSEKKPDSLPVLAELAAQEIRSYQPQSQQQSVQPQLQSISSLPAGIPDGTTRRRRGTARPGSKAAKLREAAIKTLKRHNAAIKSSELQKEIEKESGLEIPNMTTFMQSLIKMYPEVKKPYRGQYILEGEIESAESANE
# Assay: protein binding microarray;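 further: rank score from −0.5 (least bound) to 0.5 (best bound)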
# Conditions: Rok is a gene silencer of Bacillus subtilis; high values mean tight binding; most listed sequences are background and not binding sites; double strand, one strand shown
row,Sequence,binding signal [E-score]
1,CCCAGGAC,-0.165
2,CATGACGG,-0.0168
3,AAAAGCAT,-0.159
4,CCGTATTC,0.0371
5,CGGATAGC,0.000481
6,GCACTGAA,-0.281
7,ACCATCAC,0.0375
8,CGCAAATA,0.166
9,CTCCGAAC,-0.0538
10,CATTTCGA,-0.0105
11,AAGAGGCG,-0.215
12,AAACGTAT,0.193
13,CCTAAGGC,-0.149
14,GAATACTA,0.295
15,GAAAGGAC,-0.162
16,TCTGCAGA,0.136
17,ACCTGAGC,-0.221
18,CGGCACAC,-0.127
19,CGCAAGGA,-0.217
20,TACCTTAA,0.233
21,CAAACTGA,-0.0599
22,AATCCTTA,0.129
23,GCCGCTTA,-0.147
24,GGAGGAGA,-0.27
25,ATGCGCCA,-0.131

row,Sequence,binding signal [E-score]
1,AATATTAC,0.239
2,GACGGTGA,-0.0863
3,ATGTCGCC,-0.202
4,CCCTACAG,-0.166
5,ATGGCCAA,0.134
6,GCGGGAGC,-0.392
7,ACGATAGA,0.259
8,ATCGGTCA,0.0381
9,GGCCCAAC,-0.258
10,AATTAAAG,0.192
11,TATATGGA,0.343
12,GCCTGGCC,-0.314
13,CAGGGGCA,-0.417
14,ACCCATTG,-0.0408
15,GAGATTCC,0.0123
16,ACGCGGCT,-0.251
17,AAATCCCA,0.045
18,TACTACCA,0.386
19,CTTGGCTC,-0.0993
20,GCCATCTA,0.0099
21,CGCGATCC,-0.214
22,ATTGTTAC,0.15
23,ATCAACAC,0.0501
24,CCCGAGGA,-0.13
25,ATGTTAAT,0.263

row,Sequence,binding signal [E-score]
1,CTATCTAC,0.433
2,CGTCCTGA,-0.279
3,CAACCATA,0.128
4,CTCGCCCC,-0.14
5,AAACATGG,-0.0047
6,CATATAGG,0.175
7,AGAGCCTC,-0.311
8,GTGTCTAA,0.102
9,AAAACCGA,-0.0124
10,GCGGCAAA,-0.0419
11,AGCATGGA,0.0226
12,ATGAGGTA,0.18
13,GTGAGGGA,-0.139
14,TCACTTCA,-0.0825
15,CCGTATAG,0.0256
16,TGAGGCCA,-0.363
17,TATGATCA,0.168
18,GCACCAGA,-0.107
19,CCACCCGG,-0.16
20,ATCGAACA,0.029
21,TCCTCAAA,-0.206
22,AGGTGACC,-0.41
23,CTGTCTTA,0.115
24,ATCTTGAG,-0.0957
25,AAATGGGG,-0.23

row,Sequence,binding signal [E-score]
1,CAAGTAAG,-0.0652
2,GAGAGACC,-0.228
3,CCTAACGA,-0.117
4,AATACGAT,0.21
5,CTCGACGC,-0.142
6,CGAGTGGA,-0.175
7,ACACCGCT,-0.047
8,CGACCCAA,-0.139
9,CCATAATC,0.0524
10,ACTCTGTG,-0.129
11,AACTCCAC,-0.0379
12,AGAGGTAG,0.172
13,AGTGCTGC,-0.288
14,CACTGACC,-0.0773
15,AAGTCTTA,0.0533
16,CCTAGCTA,0.107
17,AGCCTAAT,0.00339
18,AACGATAC,0.108
19,GTCAAAAA,-0.156
20,CCAGGGCG,-0.372
21,AGCCGGAC,-0.133
22,AATAGGGC,-0.052
23,GCTTCCCC,-0.37
24,CTACCTAG,0.235
25,GACAATGA,-0.0569

row,Sequence,binding signal [E-score]
1,ATACTTGG,0.0534
2,AACTGGAC,0.0436
3,AACAACCC,-0.247
4,CCGAGGAC,-0.13
5,CGGGTAAG,-0.161
6,GAAAGAGA,-0.203
7,CCTACCAC,0.224
8,GACACCGA,-0.207
9,AAAGTAAG,0.153
10,GAAGCCAA,-0.0136
11,AGACGATC,-0.0742
12,CAGCTCTC,-0.173
13,TATGACAA,0.133
14,TTGACAAA,0.122
15,ACCTGGAT,-0.0366
16,CAATGAGA,-0.124
17,AATAGCAG,0.123
18,CAGGAGAA,-0.111
19,ATAAATAG,0.322
20,GCGCCTAC,-0.102
21,ATACAAAC,0.354
22,ATCTTTAG,-0.0699
23,AACTCCAT,0.0879
24,GTCATGAA,-0.012
25,GTCCTCGA,-0.00676

row,Sequence,binding signal [E-score]
1,CTGTGATA,0.264
2,CCTACAAG,0.0283
3,AGACTAGA,0.173
4,GGGCATAC,-0.057
5,CAGCTGCC,-0.263
6,CTGGACTA,0.0592
7,AACCGACA,-0.0855
8,ACCCCCAT,-0.281
9,CAAGCAGG,-0.207
10,ACGATCTA,0.193
11,AACGTCGA,-0.0718
12,CGAAGAAA,0.195
13,AACAGACG,-0.0469
14,ACATGCGA,-0.0645
15,CTACTGAC,0.22
16,CTAGTGGC,-0.0795
17,GACTGCGC,-0.251
18,CATACGGA,0.101
19,CATCGAAG,-0.141
20,ATAACTCG,0.248
21,CAGTTTGC,-0.0541
22,CAAGGCGG,-0.32
23,CGGCCTGC,-0.384
24,ATCAGCGG,-0.175
25,AAAGGCCT,-0.207

row,Sequence,binding signal [E-score]
1,AGGCGTAA,-0.0798
2,GTAGACTA,0.241
3,CCCAAACA,-0.153
4,CAAATAAA,0.137
5,CTCAATGA,-0.183
6,ATCCTCCA,-0.0743
7,AGCATCCT,-0.213
8,CGTCCACG,-0.249
9,CGGCGGAC,-0.326
10,GAACGAAC,0.0416
11,GATCGGCA,-0.0537
12,ATAGTCCG,-0.0334
13,AAGGACAG,-0.267
14,CTGTCGCA,-0.0256
15,GTTTCTCA,0.106
16,ACATAAAT,0.161
17,ACCTGCCG,-0.195
18,CATAGACG,-0.0587
19,CAGTCCAC,-0.234
20,GGTTATCA,0.00708
21,AACATCTC,-0.0565
22,ACTGCCAC,-0.0928
